Measured values: PubChem BioAssay AID2676 (National Center for Advancing Translational Sciences (NCATS), 2010)
In all, about 370,000 compounds went through this assay and about 1,100 (0.3%) were called active. Inconclusive results, whose numbers are uncertain, are shown with a selection of clear calls. The call rests on the fitted dose curve; in most records, active means well fitted activation curve with a large enough effect; inconclusive means small, poorly fitted or top-dose-only effect; inactive means flat fitted curve, though single readings scatter. Potencies of inconclusive entries are doubtful fits and often do not repeat.

Biological target: Relaxin receptor 1 (Homo sapiens) (UniProt Q9HBX9)
Test: qHTS Assay for Agonists of the Relaxin Receptor RXFP1; further: nearly all actives have a fitted effect of over 60% in size
Conditions: HEK293T-RXFP1 cAMP TR-FRET, 30 min; series mostly up to 57.5 µM
Method in brief: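 HEK293 cells stably expressing RXFP1, treated 30 min at 37C with compounds plus PDE4 inhibitor Ro 20174; cAMP measured by HTRF TR-FRET. Normalized to buffer and 29 nM porcine relaxin; EC50 by Hill fit.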
Potency means the concentration at half of the fitted maximal effect; tags describe the fitted curve by direction and shape.

UniProt Q9HBX9, sequence (Q9HBX9 whole entry, looked up): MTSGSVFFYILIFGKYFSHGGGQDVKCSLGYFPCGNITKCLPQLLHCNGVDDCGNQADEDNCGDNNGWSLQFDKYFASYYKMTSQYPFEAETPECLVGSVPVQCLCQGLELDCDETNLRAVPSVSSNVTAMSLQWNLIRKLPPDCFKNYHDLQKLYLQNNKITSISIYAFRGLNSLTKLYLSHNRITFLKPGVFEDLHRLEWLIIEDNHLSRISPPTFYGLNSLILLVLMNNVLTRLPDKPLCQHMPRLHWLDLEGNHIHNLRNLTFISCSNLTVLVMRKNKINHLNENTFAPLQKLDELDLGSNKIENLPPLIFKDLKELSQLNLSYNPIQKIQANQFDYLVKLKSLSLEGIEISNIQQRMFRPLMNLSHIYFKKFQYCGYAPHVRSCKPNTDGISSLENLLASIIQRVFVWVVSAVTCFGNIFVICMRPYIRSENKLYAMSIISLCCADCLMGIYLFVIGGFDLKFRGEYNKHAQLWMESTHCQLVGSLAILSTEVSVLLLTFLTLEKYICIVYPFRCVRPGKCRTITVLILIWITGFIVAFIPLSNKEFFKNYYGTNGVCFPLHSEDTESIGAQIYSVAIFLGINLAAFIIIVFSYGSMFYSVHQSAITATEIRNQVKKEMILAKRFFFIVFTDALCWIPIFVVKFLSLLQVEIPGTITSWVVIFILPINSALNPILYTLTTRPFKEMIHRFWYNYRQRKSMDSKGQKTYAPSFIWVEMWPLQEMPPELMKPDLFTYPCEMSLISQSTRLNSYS

Structure (SMILES)	Potency
CCOC(=O)c1cc2c(nc1NC(=S)NCc1ccccc1)CCCC2	inconclusive: 39.8 µM [activator, single point]
O=C(C/C=N/OCc1ccc(F)cc1Cl)c1cnc(-c2ccccc2)s1	inactive
CCOC(=O)C(CC)Sc1ccc2nnc(CCNS(=O)(=O)c3ccc(C)cc3)n2n1 (configuration not stated)	inactive
CC(=O)Nc1cccc(NC(=O)CSc2nc3c(c(=O)n(C)c(=O)n3C)n2C)c1	active: 28.2 µM
CCOC(=O)CC1C(=O)NCCN1C(=O)c1cc2c(=O)n3cccc(C)c3nc2s1 (configuration not stated)	inconclusive: 17.8 µM [activator, partial curve]
COc1ccc(C(=O)Nc2nc3ccccc3s2)cc1	inactive
CC(=O)c1c(C)[nH]c(C(=O)OCC(=O)c2c(N)n(C)c(=O)n(C)c2=O)c1C	inconclusive: 31.6 µM [activator, partial curve]
O=C(Nc1ccccc1C(=O)Nc1ccccc1C(=O)NCc1ccco1)c1ccco1	inconclusive: 25.1 µM [activator, partial curve]
C=CCn1c(SCC(=O)c2c(N)n(CCC)c(=O)n(C)c2=O)nnc1-c1ccncc1	inconclusive: 39.8 µM [activator, single point]
CC(=O)c1ccc(NC(=S)Nc2ccc(Br)c(Cl)c2)cc1	inactive
COc1cc2ccccc2cc1C(=O)OCc1nc2ccsc2c(=O)[nH]1	inconclusive: 35.5 µM [activator, single point]
O=C(NC(=S)Nc1cccc2[nH]ncc12)c1ccccc1	inconclusive: 31.6 µM [activator, single point]
CCc1ccccc1NC(=O)Cn1ncc2c(C)n(Cc3ccccc3F)c(C)c2c1=O	inconclusive: 39.8 µM [activator, single point]
CC(C)CNC(=O)CCSc1nc(-c2ccc3c(c2)OCO3)cc(C(F)(F)F)n1	inconclusive: 39.8 µM [activator, single point]
Cc1ccc(NCC(O)Cn2cnc3c2c(=O)n(C)c(=O)n3C)cc1 (configuration not stated)	inconclusive: 14.1 µM [activator, partial curve]
CCc1ccc(-n2nc(C)c3c(C)cc(=O)n(CC(=O)Nc4ccc(C)c(F)c4)c32)cc1	inconclusive: 35.5 µM [activator, single point]
CCOc1ccc(/C=N/NC(=O)c2cc3ccccc3cc2OC)cc1	inactive
CC1(NC(=O)c2cc(Cl)nc3ccccc23)CCS(=O)(=O)C1 (configuration not stated)	inactive
Cc1noc(NS(=O)(=O)c2ccc(N/C=C\C(=O)c3ccncc3)cc2)c1C	inconclusive: 28.2 µM [activator, partial curve]
Cc1ccc(NC(=O)c2sc3ccccc3c2Cl)cc1	inconclusive: 35.5 µM [activator, single point]
Cn1c(-c2ccc([N+](=O)[O-])cc2)nc2ccccc21	inconclusive: 15.8 µM [activator, partial curve]
Cc1ccc(-c2nnn3c2nc(NC(C)C)c2ccccc23)cc1	inconclusive: 39.8 µM [activator, single point]
O=C(Nc1ccc(C(F)(F)F)cc1)C1CCC(CNS(=O)(=O)c2cccc3nsnc23)CC1 (configuration not stated)	inconclusive: 39.8 µM [activator, single point]

Structure (SMILES)	Potency
CC(=O)C1=C(O)C(=O)N(c2ccccn2)C1c1cccc(F)c1 (configuration not stated)	inconclusive: 28.2 µM [activator, partial curve]
Cc1cc2cc3c(cc2nc1SCC(=O)Nc1nc(C)c(C)s1)OCO3	inconclusive: 22.4 µM [activator, partial curve]
COc1ccc(OC)c(Nc2nc(-c3ccccc3O)nc3ccccc23)c1	inconclusive: 31.6 µM [activator, single point]
CCc1cc2c(cc3c(=O)n(CC(=O)N4CCN(c5cc(Cl)ccc5C)CC4)ncn32)s1	inconclusive: 39.8 µM [activator, single point]
O=C(CCCCCn1c(=S)[nH]c2ccc(N3CCOCC3)cc2c1=O)NCc1ccc2c(c1)OCO2	inconclusive: 28.2 µM [activator, single point]
O=C(Cn1[nH]c(=O)c2ccccc2c1=O)N1CCN(S(=O)(=O)c2ccc(Cl)cc2)CC1	inactive
CCCC(=O)Nc1ccc(C(=O)Nc2ccc([N+](=O)[O-])cc2OC)cc1	inconclusive: 39.8 µM [activator, single point]
Cc1ccccc1C(=O)NN(C)c1nc2ccccc2nc1C(F)(F)F	inconclusive: 28.2 µM [activator, single point]
CCOC(=O)c1cnn(-c2cc(C)c3ccccc3n2)c1N	inactive
CN(C(=O)c1cc(-c2ccccc2O)on1)c1ccccc1	inactive
COc1ccc(-c2ccc3c(N)c(C(=O)NC(C)C)sc3n2)cc1OC	inconclusive: 25.1 µM [activator, partial curve]
Cc1cccc(-n2ncc3c(NCCN4CCOCC4)ncnc32)c1	inconclusive: 31.6 µM [activator, partial curve]
CCc1ccc(OCC(=O)OCC(=O)c2c(N)n(C)c(=O)n(C)c2=O)cc1	inconclusive: 22.4 µM [activator, partial curve]
O=C(Nc1nnc(-c2ccccc2Cl)s1)c1ccccc1F	inconclusive: 28.2 µM [activator, partial curve]
CCc1nnc(NC(=O)CSc2nc(C3CCCCC3)nc3ccccc23)s1	inconclusive: 39.8 µM [activator, single point]
COc1ccc(NCC(=O)n2c(C)c(C)c3ccccc32)cc1OC	inactive
COc1ccc(-c2cc(OC(=O)c3ccccc3C)c3c(C)oc(C)c3c(=O)c2)cc1	inactive
CC1(C)Cc2c(sc3ncnc(NN)c23)CO1	active: 12.6 µM
CCSc1nnc(N2C(=O)C(O)=C(C(=O)c3ccco3)C2c2cccc(OC)c2)s1 (configuration not stated)	inconclusive: 15.8 µM [activator, partial curve]
O=C(Cn1c(-c2cccs2)cc2ccccc21)NCCCN1CCN(c2cccc(Cl)c2)CC1	inactive
Cc1c(C(=O)N2CCCC2)sc(NC(=O)c2ccccc2)c1C#N	inactive
CCOc1ccc2[nH]c(=O)c(CN(CCO)C(=O)c3ccc(Br)cc3)cc2c1	inactive
Cc1ccc(-c2nn3c(=O)c(C)nnc3s2)cc1	inconclusive: 35.5 µM [activator, single point]

Structure (SMILES)	Potency
COC(=O)c1c(NC(=O)c2cccc(N3C(=O)CCC3=O)c2)sc2c1CCN(C(C)=O)C2	inconclusive: 25.1 µM [activator, partial curve]
O=C(Nc1ccccc1C(=O)Nc1ccc2c(c1)OCO2)c1ccco1	inconclusive: 35.5 µM [activator, single point]
CCOc1ccc2cc(C#N)c(SCC(=O)N3CCC(C)CC3)nc2c1	inconclusive: 35.5 µM [activator, single point]
O=C(Cc1ccccc1)Nc1nc2ccccc2s1	inactive
CCOC(=O)/C(C#N)=C/Nc1ccsc1C(=O)OC	inconclusive: 25.1 µM [activator, partial curve]
COc1ccc(Cn2ccc3nc(C)c(C(=O)NCc4ccc(SC)cc4)cc3c2=O)cc1	inconclusive: 39.8 µM [activator, single point]
COc1ccc(CNC(=O)CSc2nnc(C)c3c(C)n(-c4ccccc4)nc23)c(OC)c1	inactive
Cn1cncc1C#Cc1ccc2cc(C3(O)CCCCC3)oc(=O)c2c1	inconclusive: 7.08 µM [activator, single point]
O=C(COc1c(Br)cc(Br)c2cccnc12)N1CCCCC1	inconclusive: 25.1 µM [activator, partial curve]
COc1ccc(Cn2c(=O)c3oc4ccccc4c3n(CC(=O)Nc3c(C)cccc3C)c2=O)cc1	inconclusive: 35.5 µM [activator, single point]
CCc1cc2c(cc3c(=O)n(CCCC(=O)NCc4cccc(Br)c4)ncn32)s1	inconclusive: 31.6 µM [activator, single point]
CC[n+]1c(/C=C2\Sc3ccccc3N2C)ccc2cccc(C)c21	inconclusive: 28.2 µM [activator, partial curve]
O=C(Cn1cnc2ccccc2c1=O)Nc1nc2ccccc2s1	inconclusive: 35.5 µM [activator, single point]
COc1ccccc1C1C(C(=O)c2ccco2)=C(O)C(=O)N1c1cc(C)on1 (configuration not stated)	inconclusive: 22.4 µM [activator, partial curve]
CCOC(=O)c1cc(-c2ccc(F)cc2)n(CCC(=O)NC2CCC(C)CC2)c1C (configuration not stated)	inactive
CC(=O)c1ccc(NC(=O)c2ccc(-n3cnnn3)cc2)cc1	inconclusive: 39.8 µM [activator, single point]
CC(=O)C1=C(O)C(=O)N(c2ccc(Br)cn2)C1c1ccc(F)cc1 (configuration not stated)	inconclusive: 28.2 µM [activator, partial curve]
CCN(C(=O)COC(=O)Cn1cnc2c1c(=O)n(C)c(=O)n2C)C1CCS(=O)(=O)C1 (configuration not stated)	inconclusive: 28.2 µM [activator, single point]
COc1cccc(NC(=O)Cn2c(=O)n(Cc3ccc(F)cc3)c(=O)c3sc4ccccc4c32)c1	inconclusive: 35.5 µM [activator, single point]
CC(=O)c1sc(C(C)(C)C)cc1NC(=O)CCC(=O)O	inconclusive: 28.2 µM [activator, partial curve]
Cc1cc(N2C(=O)C(O)=C(C(=O)c3cccs3)C2c2cccc(Br)c2)no1 (configuration not stated)	inconclusive: 15.8 µM [activator, partial curve]
